Data taken from the supplement of paper PMC9151546.
Repeats are few or missing, and single values can be far off.

Key:
CHO-K1 [1] = assay: micronucleus frequency (% of nucleated events); higher = more micronuclei (genotoxic)
CHO-K1 [2] = assay: hypodiploid nuclei frequency (% of nucleated events); higher = more hypodiploid events (aneugenic)
Experimental: (§1)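 Flow-cytometric in vitro micronucleus assay (Litron MicroFlow) in CHO-K1 cells in 96-well plates, 19 concentrations (4.5-200 µM, n=1 per concentration). Without S9, cells were exposed for 24 h and sampled at 48 h. With Aroclor 1254-induced rat liver S9, cells were exposed for 3-4 h and sampled at 27-28 h. Read-outs are %MN and %hypodiploid nuclei relative to nucleated events, and relative survival as the nuclei-to-bead ratio versus the 1% DMSO vehicle control (x100).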

CHO-K1 [3] = assay: relative survival (nuclei to bead ratio vs DMSO control) (% of vehicle control); higher = more surviving cells
Experimental: as §1
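For hypodiploid nuclei frequency (% of nucleated events) in this document: hypodiploid nuclei gated on a flow cytometer with 488 nm excitation after SYTOX Green staining, cultures at 37 °C, positive controls vinblastine without S9 and cyclophosphamide with S9.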
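For micronucleus frequency (% of nucleated events) in this document: cells lysed with nuclei stained by SYTOX Green, then micronucleus-gated events counted against nucleated events by flow cytometry with 488 nm excitation.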
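For relative survival (nuclei to bead ratio vs DMSO control) in this document: Lysed-cell nuclei stained with SYTOX Green and counted against counting beads by flow cytometry at 488 nm excitation, with vinblastine (no S9) and cyclophosphamide (plus S9) as positive controls.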

Cc1cc(N=Nc2ccccc2C)ccc1N [2-Amino-5-azotoluene]
Conditions | hypodiploid nuclei frequency, CHO-K1 [2] [%] | micronucleus frequency, CHO-K1 [1] [%] | relative survival, CHO-K1 [3]
concentration: 4.5 (µM), S9 metabolic activation: with S9, exposure time: 3-4 hours | 0.26 | 1.36 | 118
concentration: 4.5 (µM), S9 metabolic activation: without S9, exposure time: 24 hours | 0.6 | 1.68 | 111
concentration: 5.63 (µM), S9 metabolic activation: with S9, exposure time: 3-4 hours | 0.2 | 1.36 | 103
concentration: 5.63 (µM), S9 metabolic activation: without S9, exposure time: 24 hours | 0.74 | 1.8 | 105
concentration: 7.04 (µM), S9 metabolic activation: with S9, exposure time: 3-4 hours | 0.24 | 1.3 | 110
concentration: 7.04 (µM), S9 metabolic activation: without S9, exposure time: 24 hours | 0.6 | 1.38 | 101
concentration: 8.8 (µM), S9 metabolic activation: with S9, exposure time: 3-4 hours | 0.23 | 1.3 | 111
concentration: 8.8 (µM), S9 metabolic activation: without S9, exposure time: 24 hours | 0.7 | 1.46 | 120
concentration: 11 (µM), S9 metabolic activation: with S9, exposure time: 3-4 hours | 0.23 | 1.36 | 101
concentration: 11 (µM), S9 metabolic activation: without S9, exposure time: 24 hours | 0.56 | 1.66 | 99.2
concentration: 13.7 (µM), S9 metabolic activation: with S9, exposure time: 3-4 hours | 0.19 | 1.36 | 107
concentration: 13.7 (µM), S9 metabolic activation: without S9, exposure time: 24 hours | 0.78 | 2.12 | 116
concentration: 17.2 (µM), S9 metabolic activation: with S9, exposure time: 3-4 hours | 0.21 | 1.38 | 105
concentration: 17.2 (µM), S9 metabolic activation: without S9, exposure time: 24 hours | 0.8 | 2.5 | 95.7
concentration: 21.5 (µM), S9 metabolic activation: with S9, exposure time: 3-4 hours | 0.26 | 1.16 | 103
concentration: 21.5 (µM), S9 metabolic activation: without S9, exposure time: 24 hours | 0.62 | 2.42 | 111
concentration: 26.8 (µM), S9 metabolic activation: with S9, exposure time: 3-4 hours | 0.29 | 2.02 | 106
concentration: 26.8 (µM), S9 metabolic activation: without S9, exposure time: 24 hours | 1.18 | 1.64 | 84.4
concentration: 33.6 (µM), S9 metabolic activation: with S9, exposure time: 3-4 hours | 0.29 | 1.65 | 101
concentration: 33.6 (µM), S9 metabolic activation: without S9, exposure time: 24 hours | 0.86 | 1.56 | 109
concentration: 41.9 (µM), S9 metabolic activation: with S9, exposure time: 3-4 hours | 0.28 | 2.04 | 98.8
concentration: 41.9 (µM), S9 metabolic activation: without S9, exposure time: 24 hours | 1.16 | 2.1 | 97
concentration: 52.4 (µM), S9 metabolic activation: with S9, exposure time: 3-4 hours | 0.34 | 1.89 | 104
concentration: 52.4 (µM), S9 metabolic activation: without S9, exposure time: 24 hours | 1.28 | 2.02 | 97
concentration: 65.5 (µM), S9 metabolic activation: with S9, exposure time: 3-4 hours | 0.31 | 1.83 | 103
concentration: 65.5 (µM), S9 metabolic activation: without S9, exposure time: 24 hours | 1.14 | 1.94 | 92.5
concentration: 81.9 (µM), S9 metabolic activation: with S9, exposure time: 3-4 hours | 0.24 | 1.46 | 102
concentration: 81.9 (µM), S9 metabolic activation: without S9, exposure time: 24 hours | 1.72 | 2.72 | 80.4
concentration: 102 (µM), S9 metabolic activation: with S9, exposure time: 3-4 hours | 0.49 | 1.73 | 89.9
concentration: 102 (µM), S9 metabolic activation: without S9, exposure time: 24 hours | 1.72 | 2 | 89.2
concentration: 128 (µM), S9 metabolic activation: with S9, exposure time: 3-4 hours | 0.28 | 1.7 | 104
concentration: 128 (µM), S9 metabolic activation: without S9, exposure time: 24 hours | 1.8 | 2.14 | 71.3
concentration: 160 (µM), S9 metabolic activation: with S9, exposure time: 3-4 hours | 0.29 | 1.33 | 89
concentration: 160 (µM), S9 metabolic activation: without S9, exposure time: 24 hours | 1.5 | 1.98 | 70.2
concentration: 200 (µM), S9 metabolic activation: with S9, exposure time: 3-4 hours | 0.35 | 2.45 | 58.5
concentration: 200 (µM), S9 metabolic activation: without S9, exposure time: 24 hours | 1.58 | 1.78 | 51.2

COc1ccc(C)cc1N [2-Methoxy-5-methylaniline]
Conditions | hypodiploid nuclei frequency, CHO-K1 [2] [%] | micronucleus frequency, CHO-K1 [1] [%] | relative survival, CHO-K1 [3]
concentration: 4.5 (µM), S9 metabolic activation: with S9, exposure time: 3-4 hours | 0.34 | 1.12 | 142
concentration: 4.5 (µM), S9 metabolic activation: without S9, exposure time: 24 hours | 0.52 | 1.5 | 104
concentration: 5.63 (µM), S9 metabolic activation: with S9, exposure time: 3-4 hours | 0.16 | 0.86 | 138
concentration: 5.63 (µM), S9 metabolic activation: without S9, exposure time: 24 hours | 0.7 | 2.72 | 103
concentration: 7.04 (µM), S9 metabolic activation: with S9, exposure time: 3-4 hours | 0.2 | 1.16 | 137
concentration: 7.04 (µM), S9 metabolic activation: without S9, exposure time: 24 hours | 0.64 | 2.52 | 96.3
concentration: 8.8 (µM), S9 metabolic activation: with S9, exposure time: 3-4 hours | 0.3 | 1.5 | 151
concentration: 8.8 (µM), S9 metabolic activation: without S9, exposure time: 24 hours | 0.56 | 2.54 | 120
concentration: 11 (µM), S9 metabolic activation: with S9, exposure time: 3-4 hours | 0.22 | 1.08 | 123
concentration: 11 (µM), S9 metabolic activation: without S9, exposure time: 24 hours | 1 | 2.08 | 110
concentration: 13.7 (µM), S9 metabolic activation: with S9, exposure time: 3-4 hours | 0.18 | 1 | 159
concentration: 13.7 (µM), S9 metabolic activation: without S9, exposure time: 24 hours | 0.66 | 1.88 | 123
concentration: 17.2 (µM), S9 metabolic activation: with S9, exposure time: 3-4 hours | 0.18 | 1.16 | 165
concentration: 17.2 (µM), S9 metabolic activation: without S9, exposure time: 24 hours | 0.92 | 2.06 | 114
concentration: 21.5 (µM), S9 metabolic activation: with S9, exposure time: 3-4 hours | 0.16 | 1.2 | 150
concentration: 21.5 (µM), S9 metabolic activation: without S9, exposure time: 24 hours | 0.94 | 2.42 | 105
concentration: 26.8 (µM), S9 metabolic activation: with S9, exposure time: 3-4 hours | 0.3 | 1.48 | 128
concentration: 26.8 (µM), S9 metabolic activation: without S9, exposure time: 24 hours | 0.76 | 2.4 | 91.2
concentration: 33.6 (µM), S9 metabolic activation: with S9, exposure time: 3-4 hours | 0.2 | 1.18 | 137
concentration: 33.6 (µM), S9 metabolic activation: without S9, exposure time: 24 hours | 0.8 | 2.6 | 114
concentration: 41.9 (µM), S9 metabolic activation: with S9, exposure time: 3-4 hours | 0.26 | 1.26 | 134
concentration: 41.9 (µM), S9 metabolic activation: without S9, exposure time: 24 hours | 0.66 | 2.06 | 100
concentration: 52.4 (µM), S9 metabolic activation: with S9, exposure time: 3-4 hours | 0.1 | 1.06 | 123
concentration: 52.4 (µM), S9 metabolic activation: without S9, exposure time: 24 hours | 0.92 | 2.82 | 84.6
concentration: 65.5 (µM), S9 metabolic activation: with S9, exposure time: 3-4 hours | 0.28 | 1.46 | 122
concentration: 65.5 (µM), S9 metabolic activation: without S9, exposure time: 24 hours | 0.96 | 4.12 | 101
concentration: 81.9 (µM), S9 metabolic activation: with S9, exposure time: 3-4 hours | 0.26 | 1.04 | 136
concentration: 81.9 (µM), S9 metabolic activation: without S9, exposure time: 24 hours | 1.1 | 2.7 | 91.2
concentration: 102 (µM), S9 metabolic activation: with S9, exposure time: 3-4 hours | 0.28 | 1.06 | 120
concentration: 102 (µM), S9 metabolic activation: without S9, exposure time: 24 hours | 1.26 | 3.44 | 87.4
concentration: 128 (µM), S9 metabolic activation: with S9, exposure time: 3-4 hours | 0.16 | 0.86 | 132
concentration: 128 (µM), S9 metabolic activation: without S9, exposure time: 24 hours | 1.42 | 3.16 | 97.8
concentration: 160 (µM), S9 metabolic activation: with S9, exposure time: 3-4 hours | 0.24 | 1.34 | 130
concentration: 160 (µM), S9 metabolic activation: without S9, exposure time: 24 hours | 1.56 | 3.26 | 99.8
concentration: 200 (µM), S9 metabolic activation: with S9, exposure time: 3-4 hours | 0.2 | 1.12 | 155
concentration: 200 (µM), S9 metabolic activation: without S9, exposure time: 24 hours | 2.08 | 3 | 97.8
